According to patent publication US9745597B2, “Compositions and methods for controlling fungal and bacterial diseases in plants” (priority 2014, dated 2017):

Assays:
Assay type in all cases: cell-based
[1] = tested on: Pseudomonas syringae pv. tomato; test: In vitro control of Pseudomonas syringae pv. tomato, OD600 in 96-well plates (Example 26); settings: rate 0.11%; bacterial growth by OD600; mixture = 95% cell-free whole broth + 5% adjuvant
Procedure: (§1) A whole broth culture of Bacillus subtilis QST713 was prepared in a soy-based medium. Bacillus subtilis cells were removed from the whole broth culture by centrifugation. […] After several hours, the OD600 in each well was measured and compared to the initial OD600 to determine the relative bacterial growth compared to that of the bacterial suspension in the untreated well.

Erwinia carotovora = test: In vitro control of Erwinia carotovora, OD600 in 96-well plates (Example 27); settings: bacterial growth by OD600, mixture = 95% cell-free whole broth + 5% adjuvant
Procedure: as §1

[2] = tested on: Xanthomonas campestris pv. vesicatoria; test: In vitro control of Xanthomonas campestris pv. vesicatoria, OD600 in 96-well plates (Example 25); settings: bacterial growth by OD600, mixture = 95% cell-free whole broth + 5% adjuvant
Procedure: as §1, with “medium as described above.” for “medium.”

| Molecule | Efficacy in % Found [1] | Efficacy in % Found (Erwinia carotovora; rate 0.11%) | Efficacy in % Found (Erwinia carotovora; rate 0.22%) | Efficacy in % Found (Erwinia carotovora; rate 0.44%) | Efficacy in % Found ([2]; rate 0.11%) | Efficacy in % Found ([2]; rate 0.22%) | Efficacy in % Found ([2]; rate 0.44%) |
| --- | --- | --- | --- | --- | --- | --- | --- |
| alkyl polyethylene glycol ether phosphoric acid mono/diester [HOSTAPHAT ® 1306] | 0% | 0% | 9% | 0% | 43% | 37% | 27% |
| CCCCCCCCOC(=O)CC(C(=O)OCCCCCCCC)S(=O)(=O)O.[Na] (stereo not drawn) [MULTIWET ™ MO-70R, sodium dioctyl sulphosuccinate] |  | 0% | 0% |  |  |  |  |
